Reference: PubChem BioAssay AID1240 (Sanford-Burnham Center for Chemical Genomics, 2008)
Out of some 50,000 compounds screened, about 800 (1.6%) showed an effect of 50% or more. This is one part of the list.

target: Bcl-2-like protein 10 (Homo sapiens) (UniProt Q9HD36); test: TR3 peptide-Bcl-B binding displacers, biochemical primary FP assay, phenotype converters (AID 1240); conditions: GST-Bcl-B / FITC-TR3 peptide fluorescence polarization; stronger effect = higher value; compound at 3.75 mg/L;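 also: 0% = Bcl-B with tracer peptide and DMSO and 100% = tracer peptide lacking Bcl-B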
Sequence of UniProt Q9HD36 (Q9HD36 whole entry, looked up): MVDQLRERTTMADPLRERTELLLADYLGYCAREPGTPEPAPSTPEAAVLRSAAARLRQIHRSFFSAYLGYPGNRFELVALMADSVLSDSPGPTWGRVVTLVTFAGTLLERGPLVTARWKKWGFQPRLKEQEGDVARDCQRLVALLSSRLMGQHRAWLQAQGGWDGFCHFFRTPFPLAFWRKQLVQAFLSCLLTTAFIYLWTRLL

| Compound | displacement [%] |
| --- | --- |
| COc1ccc2c(c1OC)C(=O)N(c1ccc(NC(C)=O)cc1)C2=O | -13.2 |
| CC(C)(C)c1ccc(OCC(=O)Nc2ccccc2-c2ccccc2)cc1 | 6.1 |
| CC(C)n1nc(CC(=O)O)c2ccccc2c1=O | -0.4 |
| O=[N+]([O-])c1ccc(Cl)cc1NC(c1ccccc1)c1ccccc1 | -4.6 |
| Cc1cc(O)c2c(C)c(Cc3ccccc3)c(=O)oc2c1 | 6.9 |
| COC(=O)c1c(N)sc(C)c1-c1cccc(Cl)c1 | -5.5 |
| CCc1ccc(-n2[nH]c(=O)c(/C=C3\C(=O)N(c4ccccc4)N=C3C)c2O)cc1 | -3.6 |
| O=C(N/N=C/c1cc(Br)ccc1O)c1cc(-c2ccc3ccccc3c2)n[nH]1 | -12.9 |
| CSc1cccc(NC(=O)Nc2ccc(Cl)cc2)c1 | -5.2 |
| COc1ccc(C(=O)/C=C/Nc2c(C)n(C)n(-c3ccccc3)c2=O)cc1OC | 5.2 |
| Cc1cc(C)c(S(=O)(=O)NCc2ccc(S(N)(=O)=O)cc2)c(C)c1 | 5.3 |
| COc1ccc(CNC(=O)C(=O)Nc2ccc(Br)cc2)cc1 | 15.7 |
| O=C(c1ccc(Cl)cc1)N1CCC(Cc2ccccc2)CC1 | 16.4 |
| CCOc1ccc(-c2nc(Cc3ccccc3OC)no2)cc1 | -6.4 |
| O=C1NC(=O)/C(=C\c2cc([N+](=O)[O-])ccc2Cl)S1 | 0.7 |
| COc1cc(OC)cc(C(=O)N2CCN(C(=O)COc3ccc4ccccc4c3)CC2)c1 | 36.3 |
| CC(c1ccccc1)N1C(=O)c2ccc(C(=O)c3ccc(C(=O)O)cc3)cc2C1=O (stereo unspecified) | -11.8 |
| COC(=O)COc1ccc(/C=C2\C(=O)NC(=O)N(C)C2=O)cc1OC | -18.2 |
| N#C/C(=C\Nc1ccccc1)c1nc(-c2cc3cc(Br)ccc3oc2=O)cs1 | 9.8 |
| CCn1c2ccccc2c2cc(CN3CCN(C(=O)c4ccc(OC)c(OC)c4)CC3)ccc21 | 11.6 |
| Clc1ccccc1CN1CCN(N=Cc2ccccc2)CC1 | 6.4 |
| O=C(Nc1ccc([N+](=O)[O-])cn1)c1cc(Cl)ccc1Cl | 1.8 |
| CCOc1ccc(N(CC(=O)Nc2ccc(F)cc2)S(C)(=O)=O)cc1 | 8 |
| COc1cc(CSc2ncn[nH]2)c(OC)cc1CSc1ncn[nH]1 | 6.2 |

| Compound | displacement [%] |
| --- | --- |
| CC(C)(C)NC(=O)C(=O)N/N=C/c1ccc(Cl)cc1 | 9.8 |
| Cc1ccc(C(=O)CCNc2ccc(I)cc2)o1 | 20.1 |
| COc1ccc2occ(C(=O)c3ccccc3)c2c1 | 11.7 |
| Cc1cccc(OCCCc2c(C)n[nH]c2C)c1 | -2.7 |
| Cc1nnc(NC(=O)c2cccc(F)c2)s1 | 16.7 |
| O=c1oc2cc(O)c([N+](=O)[O-])cc2cc1-c1csc(-c2ccc(Cl)cc2)n1 | -11.3 |
| CCCOc1cccc(C(=O)Nc2sc(CCC)cc2C(=O)OC)c1 | -3.4 |
| O=C1CC(c2ccccc2)CC2=C1C(c1cccnc1)Nc1ccc(C(=O)c3ccccc3)cc1N2 (stereo unspecified) | -7.2 |
| COCCOC(=O)c1ccc(NC(=O)c2ccc(Cl)cc2Cl)cc1 | 3.5 |
| Cc1ccc(N2C(=O)NC(=O)/C(=C\c3ccc(N(C)C)o3)C2=O)cc1 | -134 |
| Cc1ccc(NC(=O)c2ccccc2)cc1F | -6.5 |
| CC1=C(C(=O)Nc2ccc(Cl)cc2)C(c2ccc(Cl)cc2Cl)NC(=O)N1 (stereo unspecified) | -7.7 |
| COc1cccc(C(=O)NCC2CCCO2)c1 (stereo unspecified) | 6.5 |
| Cc1nc(C)c(/C(O)=C/c2nc3ccccc3oc2=O)s1 | -1.1 |
| Cc1cc(/C=C2\C(=O)NC(=O)N(c3cccc(F)c3)C2=O)c(C)n1C | 18.4 |
| Cc1cccc(N2C(=O)C(Cl)=C(Nc3ccc(F)cc3)C2=O)c1C | 4.2 |
| CCOC(=O)c1[nH]c(=O)[nH]c1CSCCO | -6.7 |
| COc1ccc(/C=C(/C#N)c2nc(-c3ccc(C)cc3)cs2)o1 | 0.9 |
| CCCOc1ccc(C(=O)Nc2scc(-c3ccc(Cl)cc3)c2C(=O)OC)cc1 | 0.4 |
| O=C(Nc1ccc(I)cc1Cl)c1cccc([N+](=O)[O-])c1 | 5.8 |
| COC(=O)c1ccccc1NC(=O)C1CC(=O)N(C2CCCCC2)C1 (stereo unspecified) | 1.8 |
| N#Cc1c(NCc2ccccc2)ccnc1SCc1ccccc1 | -4.8 |
| CC(C)CCC(CCC(=O)O)NC(=O)c1ccccc1 (stereo unspecified) | -0.5 |
| O=C(COc1ccc2ccccc2c1)Nc1cccc(-c2cc3ccccc3oc2=O)c1 | -2.4 |

| Compound | displacement [%] |
| --- | --- |
| CN1CCN(C(=O)c2cnn3c(C(F)(F)F)cc(-c4cccs4)nc23)CC1 | 11.9 |
| COc1ccc(C2/C(=C(\O)c3ccccc3)C(=O)C(=O)N2CCCCCC(=O)O)cc1 (stereo unspecified) | -4.8 |
| COc1ccc(CNC(=O)C(=O)Nc2ccc([N+](=O)[O-])cc2)cc1 | 14.5 |
| O=[N+]([O-])c1ccccc1/C=N/N/C(=N/c1ccccn1)c1ccccn1 | -6 |
| CC/C(=C1\C(=O)N(c2nc3ccccc3s2)N=C1C(F)(F)F)N1CCCCC1 | 13.2 |
| CCOc1ccc(C2C=C(Nc3ccccc3)C(=O)N2c2ccccc2)cc1 (stereo unspecified) | 7.7 |
| O=C(NC1CCCCC1)c1ccc(Cl)c(Cl)c1 | 3.3 |
| CCOc1cc(C=C2C(=O)NC(=S)NC2=O)cc(Br)c1OCCOc1ccccc1C | 9.1 |
| O=C(Nc1ccccc1)Nc1nnc(C(c2ccccc2)c2ccccc2)s1 | -0.2 |
| O=S(=O)(N/N=C/c1cccc(Cl)c1)c1ccc(Cl)cc1 | 0.9 |
| CCCCNCCCOc1cc(C)cc(C)c1 | 7.9 |
| CC(C)(C)c1cc(Br)ccc1OCC(=O)Nc1ccc(F)cc1 | -4 |
| Cc1cc(C)cc(NC(=O)COc2cc(C)c(Cl)c(C)c2)c1 | -6.5 |
| Cc1ccc(C(=O)N2CCC(C(N)=O)CC2)cc1 | -3.8 |
| COc1ccc(-c2cc(C(=O)NN3CCN(C)CC3)c3ccccc3n2)cc1OC | 1.7 |
| CCc1cccc(C)c1NS(=O)(=O)c1c(C)cc(C)cc1C | 7.7 |
| CC(=O)Nc1nc(-c2ccccc2)nc(C)c1C(C)=O | -11.8 |
| COC(=O)c1c(C)oc2ccc(OCc3c(F)c(F)c(F)c(F)c3F)cc12 | 14.2 |
| CCCC(CCC)C(=O)Nc1ccc2c(c1)N(C(=O)CCN1CCOCC1)c1ccccc1CC2 | -3.2 |
| Cc1ccc(N2NC(=O)/C(=C/c3cc([N+](=O)[O-])ccc3O)C2=O)cc1C | 4.3 |
| CCOc1ccc2nc(SC3CC(=O)N(c4cc(Cl)ccc4Cl)C3=O)sc2c1 (stereo unspecified) | 11 |
| CCCCCc1nc2sc3c(c2c(=O)n1N)CC(C)CC3 (stereo unspecified) | 3.6 |
| O=C(O)c1ccccc1/C=C1\SC(=S)N(Cc2ccccc2)C1=O | 0.7 |
